Experimental data: PubChem BioAssay AID686978 (National Center for Advancing Translational Sciences (NCATS), 2013)
Hit rate of the full screen: of about 420,000 compounds, about 64,000 (15%) were called active. The shares of active, inactive and inconclusive entries below differ from those in the screen. Calls follow the shape of the dose curve; as a rule, active = well fitted inhibition curve with a large enough effect; inconclusive = small, poorly fitted or top-dose-only effect; inactive = flat fitted curve, though single readings scatter. No potency is given beside an inconclusive call; the fits are too rough.

experiment: qHTS for Inhibitors of human tyrosyl-DNA phosphodiesterase 1 (TDP1): qHTS in cells in absence of CPT; conditions: DT40 Tdp1-/- hTDP1 cells, no CPT, ATP luminescence, 48 h; activity change, negative = growth inhibition: at 46.2 µM (top of the series); also: nearly all actives have a fitted effect of over 55% in size
In short: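 Luminescent ATP content (CellTiter-Glo) served as the growth readout. Knockout chicken DT40 cells expressing human TDP1 were exposed to compounds without camptothecin for a minimum 48 hr at 37 °C.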
% is scaled to controls: 0 for no effect and ±100 for the full control effect; potency is read from the fitted curve at half-maximal effect; tags tell the direction and shape of the fitted curve.

Q: For `O=C(/C=C/Nc1ccccc1Oc1ccccc1)c1ccco1`, which activity change, negative = growth inhibition is on record?
A: inconclusive: -30% [inhibitor]

Q: With `O=C1c2ccccc2C(=O)N1CCCCN(C(=O)c1ccco1)c1ccc(Cl)cc1` as the molecule, how does the Potency read?
A: inconclusive [inhibitor, partial curve]

Q: For `Cc1ccc(NC(=O)Cn2nnc(C(=O)NCc3cccs3)c2N)cc1F`, which “activity change, negative = growth inhibition” value is on record?
A: inactive: 25.5%

Q: For `O=C(N/N=C/C(Br)=C\c1ccccc1)c1n[nH]c2c1CCC2`, which Potency is on record?
A: active: 0.231 µM

Q: For `O=C(Cn1nnc2ccccc2c1=O)Nc1cc(C(F)(F)F)ccc1N1CCOCC1`, which Potency is on record?
A: inconclusive [inhibitor, single point]

Q: With `O=C(C[n+]1cccc(Br)c1)c1ccccc1` as the molecule, how does the Potency read?
A: inactive

Q: For `O=C(Nc1ccc2ccccc2c1)c1cn(-c2ccccc2)nc1-c1cccs1`, which Potency is on record?
A: inconclusive [inhibitor, single point]

Q: With `O=C(CCc1ccccc1)N1CCN(c2ccc(Cl)cc2)CC1` as the molecule, how does the “activity change, negative = growth inhibition” value read?
A: inactive: -25%

Q: With `Cc1ccc(C(=O)Nc2cccc(C(F)(F)F)c2)cc1Nc1cnccn1` as the molecule, how does the Potency read?
A: active: 16.4 µM

Q: For `COc1ccc(C(c2nnnn2CC2CCCO2)N2CCC(C(N)=O)CC2)cc1` (stereo not drawn), which “activity change, negative = growth inhibition” value is on record?
A: inactive: -23.2%

Q: For `CSc1ccc(-c2nc3cc(C)ccn3c2Nc2ccc(C)cc2)cc1`, which Potency is on record?
A: inconclusive [inhibitor, partial curve]

Q: For `Cc1cccc(-c2nc(S(=O)(=O)c3ccccc3)c(N3CCN(c4ccccc4)CC3)o2)c1`, which Potency is on record?
A: active: 7.31 µM

Q: Which Potency does the source give for `O=C(NCC1CCCO1)c1cc(S(=O)(=O)Nc2ccc(Br)cc2)ccc1Cl` (stereo not drawn) here?
A: inconclusive [inhibitor, partial curve, poor fit]

Q: With `NCCCCc1ccc2ccc3cccc4ccc1c2c34` as the molecule, how does the Potency read?
A: inconclusive [inhibitor, single point]

Q: Which “activity change, negative = growth inhibition” value does the source give for `CCCN(CCC)CCNC(=O)C1CC(=O)N(c2ccc(OC)cc2)C1c1ccc(OC)cc1` (stereo not drawn) here?
A: inactive: 11.4%

Q: For `O=C(CCNS(=O)(=O)/C=C/c1ccccc1)NCCc1c[nH]c2ccccc12`, which “activity change, negative = growth inhibition” value is on record?
A: inactive: -26.3%

Q: For `COc1ccc(CNC(=O)CC23CC4CC(CC(C4)C2)C3)cc1`, which Potency is on record?
A: inconclusive [inhibitor, partial curve, poor fit]

Q: For `Cc1cc(C(=O)CSc2ccc(Cl)cc2)cc(C)c1OC(=S)N(C)C`, which Potency is on record?
A: inconclusive [inhibitor, single point]

Q: For `CCCC(=O)N1CCN(c2ccc(NC(=O)c3sc4ccccc4c3Cl)cc2)CC1`, which Potency is on record?
A: inconclusive [inhibitor, partial curve]

Q: For `COc1cc(NC(=S)N2CCN(Cc3ccccc3)CC2)cc(OC)c1`, which Potency is on record?
A: inconclusive [inhibitor, partial curve, poor fit]

Q: With `CCCCNC(=O)C[C@@H]1C[C@@]2(C(=O)OC)CCCCC=C2N(Cc2ccccc2)C1=O` as the molecule, how does the Potency read?
A: inconclusive [inhibitor, partial curve]

Q: With `O=S(=O)(Cc1ccccc1)Nc1cccc(F)c1` as the molecule, how does the Potency read?
A: inconclusive [inhibitor, single point]

Q: Which “activity change, negative = growth inhibition” value does the source give for `CC1(C)O[C@@H]2[C@H](O1)[C@@H](COS(=O)(=O)O)O[C@H]2n1ccc(=O)[nH]c1=O` here?
A: inactive: 0.812%

Q: For `O=C(Nc1ccc2nc3n(c(=O)c2c1)CCCCC3)c1ccccc1Cl`, which Potency is on record?
A: inconclusive [inhibitor, single point]

Q: Which Potency does the source give for `CCOC(=O)c1sc(=NC(=O)c2ccc(C)cc2)n(C)c1C` here?
A: inconclusive [inhibitor, single point]

Q: With `COc1ccc(C2C(C#N)=C(N)N(N(C)C)C3=C2C(=O)CCC3)cc1` (stereo not drawn) as the molecule, how does the “activity change, negative = growth inhibition” value read?
A: inactive: 9.9%

Q: With `CCN(C(=O)c1cc2c(=O)[nH]c3ccc(C)cc3c2s1)c1ccc(OC)cc1` as the molecule, how does the Potency read?
A: active: 9.2 µM

Q: With `c1ccc2c(-c3csc(-c4ccncc4)n3)c[nH]c2c1` as the molecule, how does the Potency read?
A: active: 14.6 µM

Q: With `O=C1NCC(O)=C1C=Nc1ccccc1O` as the molecule, how does the Potency read?
A: inconclusive [inhibitor, single point]

Q: For `C=CCN1C(=O)C2(OCCO2)c2cc(C)ccc21`, which “activity change, negative = growth inhibition” value is on record?
A: inactive: 10.1%

Q: With `COc1ccc(C)cc1NC(=O)c1sc2ncnc(N3CCN(c4ccccn4)CC3)c2c1C` as the molecule, how does the Potency read?
A: active: 18.4 µM

Q: With `Cn1ccc2c(OCC(=O)NCc3ccc(F)cc3)cccc2c1=O` as the molecule, how does the Potency read?
A: inconclusive [inhibitor, single point]

Q: Which Potency does the source give for `CCOc1ccc(CCN2C(=S)N([C@@H](CC(C)C)CN3CCCC3CN3C(=S)NC[C@@H]3Cc3ccc(O)cc3)C[C@@H]2Cc2ccccc2)cc1` (stereo partly drawn) here?
A: inconclusive [inhibitor, single point]

Q: With `COc1cc([N+](=O)[O-])ccc1-c1ccc(C(=O)Nc2ccc(NC(C)=O)cc2)o1` as the molecule, how does the Potency read?
A: inconclusive [inhibitor, partial curve]

Q: For `COc1ccc2[nH]cc(CCNc3cc(-c4ccc5c(c4)OCO5)ncn3)c2c1`, which Potency is on record?
A: active: 20.6 µM

Q: For `COc1ccc2[nH]c(N=Nc3ccccc3C)c(O)c2c1`, which Potency is on record?
A: inconclusive [inhibitor, partial curve]

Q: Which Potency does the source give for `CC(C)Cn1c(=O)c(C(=O)Nc2cnccn2)c(O)c2ccccc21` here?
A: active: 25.9 µM

Q: Which “activity change, negative = growth inhibition” value does the source give for `CCOc1ncccc1C(=O)Nc1ccc(S(=O)(=O)Nc2cc(C)nc(C)n2)cc1` here?
A: inactive: -6.72%

Q: For `Cc1ccc(Cn2c(CCCO)nc3ccccc32)cc1`, which Potency is on record?
A: inconclusive [inhibitor, single point]

Q: For `CC(=O)Cc1nsc(NC(=O)c2ccc(-c3ccc(F)cc3)o2)n1`, which Potency is on record?
A: inconclusive [inhibitor, single point]

Q: Which Potency does the source give for `CCCCCOc1ccc(C2C(C(C)=O)=C(C)Nc3ncnn32)cc1OC` (stereo not drawn) here?
A: inconclusive [inhibitor, partial curve, poor fit]

Q: Which “activity change, negative = growth inhibition” value does the source give for `Cc1cccc(NC(=O)c2cccnc2Cl)n1` here?
A: inactive: 21.4%

Q: Which Potency does the source give for `Cc1ccc(C(=O)c2cn(Cc3ccccc3)c3cc4c(cc3c2=O)OCCO4)cc1` here?
A: inconclusive [inhibitor, single point]

Q: Which Potency does the source give for `CCN(C[C@H]1N[C@@](CC)(C(=O)OC)[C@H]2C(=O)N(Cc3ccccc3)C(=O)[C@@H]12)S(=O)(=O)c1ccc(OC(F)(F)F)cc1` here?
A: active: 16.4 µM

Q: Which Potency does the source give for `NC(c1ccc(F)c(F)c1)c1nc(-c2cc(F)cc(F)c2)cs1` (stereo not drawn) here?
A: inconclusive [inhibitor, single point]

Q: Which Potency does the source give for `BrC(=C\c1ccccc1)/C=N/n1cnnc1` here?
A: active: 0.58 µM

Q: Which Potency does the source give for `C=CCN(CC=C)C(=O)C1c2ccccc2Oc2ccccc21` here?
A: inconclusive [inhibitor, partial curve, poor fit]

Q: Which Potency does the source give for `Cc1cc(NC(=O)c2ccc(Br)o2)ccc1NC(=O)c1ccco1` here?
A: active: 16.4 µM

Q: For `CC(=O)c1ccc(NC(=O)CSc2nnc(NC(=O)NC3CCCCC3)s2)cc1`, which Potency is on record?
A: inconclusive [inhibitor, single point]

Q: Which Potency does the source give for `Cc1ccnc2c1ccc1cccnc12` here?
A: active: 0.58 µM

Q: Which Potency does the source give for `O=C(COc1ccccc1Cl)Nc1ccc2c(c1)OCCO2` here?
A: inconclusive [inhibitor, partial curve]

Q: For `Cc1cccc(Cn2c(CNC(=O)c3ccccc3)nc3ccccc32)c1`, which Potency is on record?
A: inconclusive [inhibitor, single point]

Q: Which Potency does the source give for `CCCCN(CCCNC(=O)c1c(C)cc(=O)oc1C)c1ccccc1` here?
A: inconclusive [inhibitor, single point]

Q: Which “activity change, negative = growth inhibition” value does the source give for `CCOC(=O)c1ccc(-c2ccc(CO)o2)cc1` here?
A: inactive: -0.0039%

Q: With `CSc1nc(C(C)C)ccc1CNC(=O)CC(C)c1ccccc1` (stereo not drawn) as the molecule, how does the Potency read?
A: active: 23.1 µM

Q: Which “activity change, negative = growth inhibition” value does the source give for `O=C(CCN1CCOCC1)Nc1ccc(Cl)cc1` here?
A: inactive: -2.48%

Q: Which Potency does the source give for `O=C(NCCCN1CCOCC1)c1ccc2ccccc2c1` here?
A: inconclusive [inhibitor, single point]

Q: With `CCc1cc2c(=O)c(-c3ccc4c(c3)OCCO4)coc2cc1OS(C)(=O)=O` as the molecule, how does the Potency read?
A: inconclusive [inhibitor, partial curve, poor fit]

Q: For `CCOC1=C2[C@H](c3ccccc3)N(S(=O)(=O)c3ccc(C)cc3)C[C@H]2n2c(=O)n(-c3ccccc3)c(=O)n2C1`, which “activity change, negative = growth inhibition” value is on record?
A: inactive: -5.86%

Q: With `CC(C)OC(=O)NCCOC(=O)Nc1ccc(Cl)cc1` as the molecule, how does the Potency read?
A: active: 14.6 µM

Q: For `CCOC(=O)N1CCN(c2nc(=S)n(-c3ccccc3)c(C)c2C(C)=O)CC1`, which Potency is on record?
A: inconclusive [inhibitor, partial curve]

Q: For `COc1ccc(N2CCN(CCCNC(=O)C3CCC(CNc4nc(=S)[nH]c5ccccc45)CC3)CC2)cc1` (stereo not drawn), which Potency is on record?
A: active: 23.1 µM

Q: With `Cc1cc(C)c(NC(=O)Nc2sc3nc4n(c(=O)c3c2C)CCC(C)CC4)c(C)c1` (stereo not drawn) as the molecule, how does the “activity change, negative = growth inhibition” value read?
A: inactive: -29.1%

Q: For `CC(C)N(C(=O)CSc1nn2c(=O)c(C(C)(C)C)nnc2s1)c1ccccc1`, which Potency is on record?
A: inconclusive [inhibitor, partial curve, poor fit]

Q: For `S=C(NCCN1CCOCC1)Nc1cccc2ccccc12`, which “activity change, negative = growth inhibition” value is on record?
A: inactive: 4.43%

Q: For `O=C(NN1CCOCC1)c1ccc(Cl)cc1[N+](=O)[O-]`, which “activity change, negative = growth inhibition” value is on record?
A: inactive: -0.683%

Q: For `COc1ccc(CCNC(=O)CSc2ncnc3c2oc2ccccc23)cc1OC`, which Potency is on record?
A: inconclusive [inhibitor, single point]

Q: With `CC(C)N(C(=O)Cn1cc(S(=O)(=O)CC(=O)Nc2ccccc2)c2ccccc21)C(C)C` as the molecule, how does the “activity change, negative = growth inhibition” value read?
A: inactive: -28.5%

Q: For `Cc1ccc(NC(NC(=O)c2cccnc2)C(Cl)(Cl)Cl)cc1` (stereo not drawn), which Potency is on record?
A: inconclusive [inhibitor, partial curve]

Q: Which Potency does the source give for `CC1Cc2ccccc2N1S(=O)(=O)c1cccc(C(=O)NNC(=O)c2ccccc2F)c1` (stereo not drawn) here?
A: inconclusive [inhibitor, single point]

Q: For `Cc1ccccc1C(=O)Nc1cc(C(F)(F)F)ccc1-n1cncn1`, which “activity change, negative = growth inhibition” value is on record?
A: inactive: -5.95%

Q: For `C=C(C)CN=C1SC(C(=O)Nc2sc3c(c2C(=O)OC)CCC3)C(N)=C1C(N)=O` (stereo not drawn), which Potency is on record?
A: inconclusive [inhibitor, single point]

Q: With `CN(C)c1ccc(C(=O)Nc2ccc(O)c3c(=O)cc(-c4ccccc4Cl)oc23)cc1` as the molecule, how does the Potency read?
A: inconclusive [inhibitor, single point]
